Results on 167 variants are retold here after the RNAGym collection of RNA variant scans (doi:10.7554/elife.90254).

The source gives no read counts; variants with many changes may rest on few reads.

First the molecules themselves.
B1: LINE1-full (parent)
chain: UACGUAGGUGGUUUUCCCCUGAUAGUGCUAAGGGGGCCUGGAAGUUUGGACUGGGCAGAGCUCAACACAGCGUGGCAAAGUGGCUGUGGCUAGACUGCCUCUCUGGAUUCCUCGUCACUCAGCAGGGCAUCUCUGAGAGAAAUGCC

The variants in this data set derive from B1. The experiment in a line: self-cleavage, relative activity (ratio to wild type); higher = more cleavage; in vitro, sequencing; the parent is a self-cleaving ribozyme.
As to G25A A43G U52A U100C, the self-cleavage came out at 1.65.
The same measure for U29C A78G A124G: 0.86; for C28A U45C U91C A129U U130C: 0.71; for C28U A43G A67G U73A A141G: 0.5.
With U26A A107U A141G the figure was 1.24; with U29C A64G A107G, 1.93.
With G27A G72C U112A A142G the figure was 1.48; with U26A A30G A57C G70A A107G U109A A142G, 0.3; with U26A G135U A140U, 1.35.
For the variant G25U U47A A77G A78G, the self-cleavage was determined as 1.88.
The same measure for U29C A59U G72A A77G A107G: 1.97.
The same measure for U26A U87C U104C U112A: 0; for U26A U39C A64C A65U U115C U134C: 0; for U29A A50G C113U A142G: 0.74.
With U29C A31U U100A A141G the figure was 0.69; with U26C A69U U87A U96C U119C, 0; with U26A U87A A129U U130C, 0.
Take U26C U46C G137U: the self-cleavage amounted to 0.97.
The same measure for U29C A77G U85A: 0.41.
With U29C C98U G144A the figure was 0.77; with U26C U46C A124G, 0.29; with C28G G35A U87C U112C A117U, 0.13.
The same measure for U26A G72U A136G A142U: 1.59; for G27U A65G C95U: 0.06.
Turning to U26A U29C U47A C68U, the self-cleavage was determined as 0.19.
With U26A A31G U115C C145A the figure was 1.05; with U26C U39C A129G A141G, 0.59; with U29A A59G A77G A140G, 0.15.
The same measure for U26A G34A U143A: 0.82; for U26A U100C U112C: 1.84; for U29A G33A G35U U85C: 0.44.
The same measure for C28U U91G G125A: 0.03; for U29C A65G C99U G125A: 0.06; for U26C A43G A138U: 0.93.
Take U26C A57G A141G: the self-cleavage is 0.96.
With U26C A65G A136G the figure was 0.12; with G25U G49C U62C, 0.07; with U26G A59C U62C A77U C90A, 0.07.
The same measure for U26A A78U U108A U112C: 1.63; for G25A U112C C131U: 1.79; for G25C C68U U96C U102A: 0.12.
The same measure for U26A U47G U119C U132C A136G: 0.77; for U26C A59G G126A U130C: 0.12.
U26C A64G U132C: the self-cleavage came to 0.41.
With U26C A77U U85G the figure was 0.04; with U26C A78G C113U, 1.47.
The same measure for G27U U52C A64G U73C C95A: 0.02.
With U26C U47A A57G G75C the figure was 0.27; with U29C A30G A42G G60A A117G A129G, 0.
G25A U112C A142G: the self-cleavage is 1.48.
With U26C U39C A77U U119C the figure was 0.97.
The same measure for U26A A57G A79G U85C: 0; for C28U U39C U52A: 0.24; for U26A U85A U130C: 0.07.
Regarding U26A A42G U85C, the self-cleavage was 0.
As for U26C A124U G126U, the self-cleavage worked out at 1.39.
Consider G25C A64U U73C, for which the self-cleavage was 0.56.
The same measure for U26C A30G A69U U73C: 0.
Regarding U26C A31G U87C, the self-cleavage is 0.71.
The same measure for U26C G34C G58A: 0.1.
As to U29C C56U A136G, the self-cleavage stood at 0.38.
In the case of U29C G35A A138U, the self-cleavage was 1.35.
The same measure for U26C G32A U46C A64U A77G U115A: 1.04; for U26A U39A U115C: 0.71; for U26G A69G U130C: 0.88.
With U26G U134A A141G the figure was 1.14; with U29C A67G A124G, 0; with G25A U46A U96C U100C, 0.21.
With U26G G53U C76U A77C the figure was 1.2; with U26A U73A A124C, 1.27.
For the variant U26C A69G U87A A136G A142G, the self-cleavage is 0.
With C28A U109C U112A the figure was 0.88.
In the case of C28G A65G U108C U130C, the self-cleavage is 0.
The same measure for U26A U29C U102C: 0.98; for G27U A50G U104A A107C: 1.67; for U26A A136G A140G: 0.36.
With U26A A57G U85A the figure was 0.08.
The same measure for U26C U29C C98G: 0.09; for C28U U29C A138G A142G: 0.71; for U26A A64G U100C: 0.84.
For G25C U91A A138U, the self-cleavage is 0.97.
G25A U102C U115A U130A: the self-cleavage was found to be 1.36.
With G25A A30G U115C the figure was 0; with G27A A31U A136G, 1.15.
With U26C U87A C99U the figure was 0.06; with G27A U39A U62C U85C U109G, 0.
As to U29C A59U U85A, the self-cleavage amounted to 0.12.
With U26A A77U A138G G144A the figure was 1.17.
Take G25A G44U A57U G74A U102C U115C: the self-cleavage was found to be 0.12.
Regarding G27A G53C U85A U112C, the self-cleavage amounted to 0.07.
The same measure for U26C C56G U87C G125U: 0.03.
The same measure for U26C G40A A69G U73C: 0.78; for U26C U45A G80A: 1.39; for U26C C66U U109C: 0.06.
The same measure for U26C A65G U112C: 0; for C28U U52C C120U: 1.04.
Consider G25C U52A C98A, for which the self-cleavage turned out to be 0.44.
The same measure for U29A G54U A69G U132C: 0.12.
As to G25C C71G A92G A129G A142G, the self-cleavage was 0.1.
The same measure for U26C A57G U96C A117U: 0; for G25C A64G U87C: 0.
With U26A C71U A77G, the self-cleavage was determined as 0.57.
In the case of U26C A42G U109C A142G, the self-cleavage turned out to be 1.62.
The same measure for U26C U39A C63U A78G A79U: 0.23; for U26A U47C U62C A79G A121U U134C: 0; for U26C A57G U96C: 1.53.
Regarding U26C U52C A79G A121U U143C, the self-cleavage came to 1.41.
With U26G A50C U130C the figure was 1.41; with U26C U62A U115A A124G, 0.15.
In the case of U29C A124G A141G, the self-cleavage was 1.15.
In the case of U29C A59G U96A, the self-cleavage stood at 0.21.
The same measure for U26A U52A U91C U100C U132C: 0.88; for U26C A57G G114A: 0.99.
The same measure for U29A G70U U73C: 0.26; for G27U A42G A78U A79G: 2.33.
With U26C U130C U132C A142G the figure was 2.16; with U26C A77U A140G, 1.59; with U26A A42G U52A, 0.9.
Turning to U26A U102C U119A, the self-cleavage was 1.37.
With G27A C37U U39G U104C A140G the figure was 1.11.
Regarding U26A A69U U115G, the self-cleavage was determined as 0.14.
Consider G27A U112C A129U, for which the self-cleavage came to 0.68.
The same measure for U26C U87A A92G A141G: 0.07; for U29C A78G A140G: 0.44.
With U26G U81A U115C the figure was 2.3; with G27A A57G A65G A129G, 0; with U26C G40A U47C A64C C66U A117U, 0.
For C28U U39C A64U U96A A129G, the self-cleavage amounted to 0.01.
With U26C U52A U96G the figure was 0.27; with U26C C51U U91C C111A, 0.77.
The same measure for U29C A30G A141G: 0.77; for G27A A78G A92G: 0.09.
As for U26C U45C A92G U134C C146U, the self-cleavage came out at 0.22.
With U26G A31U C51U the figure was 0.79; with U26A U45C U52A, 1.16; with U26C A57G A79G, 0.54.
The same measure for U26C A65G A107G U132C: 0; for U29A U39C A69G: 0; for U29A A43G A64G U87A U119C: 0.7.
The same measure for U26C C37U U73C A142U: 0.59; for G25A U39A U62A U85A: 0.01.
Take G25A A42G U143C: the self-cleavage is 1.23.
The same measure for U29A A65G G82A G139U: 0.07; for C28A G32U A67C: 0.
The same measure for U26A A69G U108C: 0.
The same measure for C28G A77G A136G: 0.92; for C28U A78G U134C: 1.15; for U26C U29C G36A G74A A78G A129C: 1.1.
For the variant U26G U100A U104C A129U, the self-cleavage was determined as 1.23.
The same measure for U29C G33C A107G A136U: 1.63; for U26C U47G A79G: 1.01.
With U26C G35A C146U the figure was 1.12; with U26A A30G U62A A136G U143A, 0.34; with G27U A42U A129G, 0.7.
With U26C A59G C101U the figure was 0.1; with U26C A92U A129U, 0.93; with U26A C28U A64U, 0.42.
Take U29A U96G G144A: the self-cleavage was found to be 0.06.
The same measure for U26C A31G A59G: 0; for U26C C56U A142G: 0.18; for U26C A43G A69U C99A: 0.07.
As to U26C U52A U115A A141U A142G, the self-cleavage turned out to be 1.07.
With U29A U46C U73C U87C the figure was 1.15.
Take U26A A77G U100A: the self-cleavage was found to be 0.63.
The same measure for U29A A43G U143A: 0.45; for U26C A57G U119C: 0.97.
With U26A A59U G74A the figure was 0.37.
